# In PMC4336329 (PLoS ONE, 2015):
# The whole screen tested about 310,000 compounds, of which about 2,200 (0.71%) showed an effect of 50% or more. Effects have a minus sign here. The list shows a part of the results.
# Biological target: human ether-à-go-go-related gene (hERG) potassium channel (human, UniProt Q12809)
# Experiment: primary screen, population patch clamp on CHO cells stably expressing hERG
# Sequence of human ether-à-go-go-related gene (hERG) potassium channel (Q12809 whole entry, looked up): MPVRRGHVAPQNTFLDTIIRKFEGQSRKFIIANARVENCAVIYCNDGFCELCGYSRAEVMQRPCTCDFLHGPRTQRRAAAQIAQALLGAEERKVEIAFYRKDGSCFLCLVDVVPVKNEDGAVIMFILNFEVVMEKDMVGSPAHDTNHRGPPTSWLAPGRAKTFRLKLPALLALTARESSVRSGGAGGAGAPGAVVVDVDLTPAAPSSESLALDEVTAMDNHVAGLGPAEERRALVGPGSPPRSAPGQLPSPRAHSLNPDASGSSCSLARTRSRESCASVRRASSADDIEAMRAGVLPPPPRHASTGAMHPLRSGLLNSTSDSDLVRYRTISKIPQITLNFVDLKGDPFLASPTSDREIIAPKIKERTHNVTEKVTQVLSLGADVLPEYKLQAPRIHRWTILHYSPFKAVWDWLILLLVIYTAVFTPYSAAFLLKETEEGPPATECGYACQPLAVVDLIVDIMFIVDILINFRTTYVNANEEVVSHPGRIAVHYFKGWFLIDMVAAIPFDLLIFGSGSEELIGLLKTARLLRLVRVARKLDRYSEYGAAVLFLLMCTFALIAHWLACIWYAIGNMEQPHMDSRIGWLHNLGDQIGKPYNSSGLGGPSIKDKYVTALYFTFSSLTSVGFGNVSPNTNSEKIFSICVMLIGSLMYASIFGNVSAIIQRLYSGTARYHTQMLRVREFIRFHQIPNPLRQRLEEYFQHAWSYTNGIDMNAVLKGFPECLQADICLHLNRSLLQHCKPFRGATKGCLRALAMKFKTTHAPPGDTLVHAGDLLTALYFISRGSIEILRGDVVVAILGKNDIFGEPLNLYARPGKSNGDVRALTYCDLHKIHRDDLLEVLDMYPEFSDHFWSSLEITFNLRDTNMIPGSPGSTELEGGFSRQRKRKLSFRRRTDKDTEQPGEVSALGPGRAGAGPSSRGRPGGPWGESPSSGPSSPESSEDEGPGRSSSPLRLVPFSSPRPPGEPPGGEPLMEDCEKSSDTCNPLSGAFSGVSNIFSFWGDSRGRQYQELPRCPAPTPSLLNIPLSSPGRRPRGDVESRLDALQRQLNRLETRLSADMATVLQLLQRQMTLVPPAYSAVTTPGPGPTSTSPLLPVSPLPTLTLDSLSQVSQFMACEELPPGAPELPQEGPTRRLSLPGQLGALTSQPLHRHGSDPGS
row,SMILES,"hERG current change (%, negative = inhibition) at 1uM [%]"
1,COc1ccc(CC(=O)N2CC3(C)CC2CC(C)(C)C3)cc1OC (stereo not shown),-3.57
2,CCc1nnc(NC(=O)CCC(=O)Nc2ccc(OC)cc2OC)s1,18.1
3,O=c1[nH]c2ccccc2cc1CN(Cc1ccco1)S(=O)(=O)c1ccccc1,15.6
4,CCOC(=O)c1c(C)nc2sc3c(c2c1-c1ccc(OC)cc1)NC(c1ccc(OC)cc1)NC3=O (stereo not shown),12.9
5,O=C(Nc1ccccc1)C1=C[C@@H](c2coc3ccccc3c2=O)C[C@@H](OCc2ccc(CO)cc2)O1,6.46
6,COc1ccc(O)c(C(=O)c2cnc3c(c2)c(-c2ccc(F)cc2)c(C#N)c(=O)n3C)c1,10.7
7,Fc1ccc(-c2cc(C(F)(F)F)n3ncnc3n2)cc1,0.0583
8,CCOC(=O)c1cc2c(=O)n3ccccc3nc2n(C)c1=NC(=O)c1c(-c2c(F)cccc2Cl)noc1C,10.5
9,CCCCn1cc(C(=O)c2cc(Br)ccc2O)cc(C#N)c1=O,13.4
10,CC1CC(C)CN(C(=O)c2ccc3nc[nH]c3c2)C1 (stereo not shown),8.66
11,C/C(=N\O)c1ccc2c3c([nH]c2c1)CCCC3,5.78
12,CCCCNC(=O)C1CC(=O)N(c2ccc(OC)cc2)C1c1ccc(OC)cc1 (stereo not shown),8.88
13,O=C(CSc1nnc(NC(=O)Cc2ccccc2)s1)NCC1CCCO1 (stereo not shown),11.8
14,Cc1ccc(C)c(NC(=O)CCC(=O)N/N=C2/CC(=O)CC(C)(C)C2)c1,13.2
15,CC1(C)OC(C(O)(c2ccccc2)c2ccccc2)[C@@H](C(O)(c2ccccc2)c2ccccc2)O1 (stereo partly shown),8.96
16,O=C(NC1CCCCCC1)c1cc(S(=O)(=O)N2CCOCC2)ccc1F,15
17,COC(=O)c1cc(=O)n2c(-c3ccccc3)csc2n1,-3.98
18,COc1cccc(-c2coc3c(C)c4oc(=O)c(CC(=O)O)c(C)c4cc23)c1,8.88
19,COc1ccc(S(=O)(=O)N2CCC(C(=O)Nc3ccccc3N3CCCCC3)CC2)cc1OC,14.9
20,COc1ccc(S(=O)(=O)N2CCOC2CNC(=O)C(=O)NCc2ccncc2)cc1C (stereo not shown),3.12
21,CC(C)C1=NN(C(=O)c2cccnc2)C(O)(C(F)(F)F)C1 (stereo not shown),-14.2
22,O=S(=O)(Cc1ccccc1)NCc1ccccn1,9.52

row,SMILES,"hERG current change (%, negative = inhibition) at 1uM [%]"
1,O=C(O)c1ccc(NC2CC(=O)N(Cc3ccccc3)C2=O)cc1 (stereo not shown),14
2,Cc1ccc2c(c1)-c1c(ssc1=S)C(C)(C)N2C(=O)CSC1=NCCS1,8.21
3,O=S(=O)(NCc1cccnc1)c1ccc(Br)s1,3.29
4,O=C(CN1CCOCC1)Nc1ccc2c(c1)OCCO2.O=C(O)C(=O)O,13.9
5,CC(=O)c1ccc(NC(=O)c2cc(Cl)nc3ccccc23)cc1,9.16
6,C[C@]12CCC[C@H](O1)c1c(cc3c(c1O)C(=O)c1c(O)cc(O)cc1C3=O)O2,3.96
7,COc1ccc(C(CNC(=O)COc2ccccc2)N2CCCCC2)cc1 (stereo not shown),-4.21
8,CCN(Cc1nc2ccccc2c(=O)[nH]1)C(=O)C1CC(=O)N(c2cccc3ccccc23)C1 (stereo not shown),6.74
9,O=C(c1ccc(OC2CCN(Cc3ccc(C(F)(F)F)cc3)CC2)cc1)N1CCCCC1,6.84
10,C=CCNc1nc(N)c([N+](=O)[O-])c(Nc2ccccc2OC)n1,6.42
11,CCNC(=O)Nn1c(-c2ccccc2)nc2ccccc2c1=O,17
12,O=C(O)[C@@H]1[C@@H]2C[C@@H]2CN1c1ncccc1[N+](=O)[O-],17.5
13,COCCNC(=O)CN(C(=O)CCC(=O)Nc1ccccn1)c1ccc(C)cc1,10.2
14,CCOC(Cn1c(CCCO)nc2ccccc21)OCC,-3.21
15,Cc1c(C(=O)N2CCC3(CC2)CC(=O)c2ccccc2O3)cccc1[N+](=O)[O-],-83.9
16,Cc1cc(NC(=O)c2cnn3cccnc23)n(-c2ccccc2)n1,-19.5
17,CCOc1ccccc1CNC(=O)C1CCN(C(=O)N2CC(C)Oc3ccc(C)cc32)CC1 (stereo not shown),9.52
18,COc1ccccc1C(=O)OCCN1CCOCC1.Cl,-1.02
19,Cc1cccc(NC2=NC(=S)N(CC#N)C23CCCCC3)c1,7.23
20,O=C(O)CSc1nnc(CNc2ccc(F)cc2)n1-c1ccccc1,9.25
21,COc1ccc(S(=O)(=O)N2CCOCC2)cc1NC(=O)COC(=O)C1CCC1,11.6
